{
  "source": "ChEMBL document CHEMBL4888484",
  "about": "“Replenishing the malaria drug discovery pipeline: Screening and hit evaluation of the MMV Hit Generation Library 1 (HGL1) against asexual blood stage Plasmodium falciparum ,using a nano luciferase reporter read-out” (2022)",
  "note": "About 540 (0.36%) of roughly 150,000 compounds showed an effect of 50% or more. Some of the results follow.",
  "data": [
    {"tested_on": "Plasmodium falciparum", "experiment": "Primary screen in NF54 nanoGlo assay, in single point, at 2uM, 72h; a lower Z score goes with more inhibition", "type": "functional, Erythrocyte", "conditions": "timepoint 72 hour", "units": {"% Inhibition": "%"}, "values": [
      {"smiles": "Cn1nnc2c(NC3CCCCCC3)ncnc21", "% Inhibition": -7, "Z score": 1.36},
      {"smiles": "Cc1ccc(C)c([C@@H](O)Cn2nc(C(N)=O)ccc2=O)c1", "% Inhibition": 6, "Z score": -0.6},
      {"smiles": "COc1cc2c(cc1OC)CN(C(=O)CNc1nc(C)cc(C)n1)CC2", "% Inhibition": -13, "Z score": 1.65},
      {"smiles": "CCOC(=O)c1cc(NC(=O)N2CCC[C@H]2C2CCC2)c[nH]1", "% Inhibition": 0, "Z score": -0.04},
      {"smiles": "C[C@H](N(C)C(=O)c1ccc(Br)o1)C(C)(C)C", "% Inhibition": -13, "Z score": 2.03},
      {"smiles": "Cc1noc(C)c1S(=O)(=O)NC[C@H](OCCO)c1ccsc1", "% Inhibition": 4, "Z score": -0.4},
      {"smiles": "Cc1nn(-c2cccc(F)c2)cc1CN[C@@H](C)c1ncn(C)n1", "% Inhibition": -17, "Z score": 2.56},
      {"smiles": "CC(C)(C(=O)N1C[C@H](N)C2(CCC2)C1)C(F)(F)F", "% Inhibition": 2, "Z score": -0.22},
      {"smiles": "CCc1nc(-c2nn(-c3ccc(Cl)cc3)c(=O)n(CC(=O)O)c2=O)no1", "% Inhibition": -8, "Z score": 0.93},
      {"smiles": "CCCc1ccc([C@H](C)N(CC(N)=O)Cc2csc(-c3ccccc3)n2)cc1", "% Inhibition": 8, "Z score": -1.03},
      {"smiles": "COc1cccc(-c2nc3c([nH]2)CCN(Cc2nnc(C)o2)C3)c1", "% Inhibition": -16, "Z score": 1.75},
      {"smiles": "C=C(C)CC(C)C(=O)N1CC2(CCC2)C1c1cccnc1", "note": "(stereo not given)", "% Inhibition": -5, "Z score": 0.73},
      {"smiles": "CN(C)S(=O)(=O)c1ccc(C(=O)NC[C@]2(O)CCCc3occc32)cc1", "% Inhibition": 10, "Z score": -1.24},
      {"smiles": "CCNC(=O)NC1(CC2CC2)CCN(S(=O)(=O)c2ccc3c(c2)CCC3)CC1", "% Inhibition": -9, "Z score": 1.8},
      {"smiles": "COc1ccc(Br)c(CS(N)(=O)=O)c1", "% Inhibition": -4, "Z score": 0.64},
      {"smiles": "COc1cc(CNCCc2ccncc2C)sn1", "% Inhibition": 5, "Z score": -0.61},
      {"smiles": "COc1ccccc1CN1CCC[C@H](c2nnc(Cn3cccn3)n2C)C1", "% Inhibition": -16, "Z score": 1.53},
      {"smiles": "COc1cc(OC)c(NC(=O)Cn2c(N3CCc4ccccc4C3)nc(C)cc2=O)cc1Cl", "% Inhibition": -1, "Z score": 0.11},
      {"smiles": "Cn1cncc1Cc1nc(-c2ccccc2)no1", "% Inhibition": -5, "Z score": 0.84},
      {"smiles": "C=CCN(C(=O)CCc1c(C)nc2c(C(N)=O)cnn2c1C)c1nc2c(s1)CCCC2", "% Inhibition": 0, "Z score": 0.08},
      {"smiles": "Cc1cnc2c(C(=O)N3CC(Oc4ccccc4C)C3)cnn2c1", "% Inhibition": -23, "Z score": 2.66},
      {"smiles": "CCn1cc(NS(=O)(=O)c2ccc3c(c2)CCCC3)cn1", "% Inhibition": 3, "Z score": -0.42},
      {"smiles": "O=c1c2c([nH]c3ccccc13)OCCC2", "% Inhibition": 6, "Z score": -1.21},
      {"smiles": "O=C([C@H]1CCCN(c2ncnc3c2nc2n3CCCCC2)C1)N1CCN(c2ncccn2)CC1", "% Inhibition": -6, "Z score": 0.94},
      {"smiles": "O=C(CN(C(=O)C1CCC1)C1CC1)N1CCN(c2ccc(-c3ccc(Cl)cc3Cl)nn2)CC1", "% Inhibition": 5, "Z score": -0.71},
      {"smiles": "C[C@@H](c1ccncn1)N(C)Cc1noc(C2CCCC2)n1", "% Inhibition": -10, "Z score": 1.19},
      {"smiles": "COc1ccc(S(=O)(=O)NCc2ccsc2)cn1", "% Inhibition": -2, "Z score": 0.24},
      {"smiles": "Cc1ccccc1COC1CN(C(=O)[C@H]2CC(=O)N(CCN(C)C)C2)C1", "% Inhibition": 6, "Z score": -0.61},
      {"smiles": "COc1ccc(Cl)cc1[C@@H](O)CNC(=O)c1cccc2c1OCC2", "% Inhibition": 3, "Z score": -0.26},
      {"smiles": "CCOc1nccnc1NCc1ccncc1", "% Inhibition": -15, "Z score": 2.12},
      {"smiles": "CC1CCCC(C)C1NC(=O)c1ccc2c(c1)OCO2", "note": "(stereo not given)", "% Inhibition": -10, "Z score": 1.49},
      {"smiles": "COc1ccccc1CC1(O)CCN(C(=O)N(C)C2CCOCC2)CC1", "% Inhibition": -1, "Z score": 0.15},
      {"smiles": "Cc1cc(C(=O)NCc2cncc(N3CCCC3=O)c2)n(C)n1", "% Inhibition": -4, "Z score": 0.78},
      {"smiles": "Cc1ccncc1NS(=O)(=O)c1ccc2ccccc2c1", "% Inhibition": 7, "Z score": -1.13},
      {"smiles": "COCc1cccc(C(=O)N[C@@H]2[C@@H]3CCO[C@@H]3[C@H]2NC(C)=O)n1", "% Inhibition": -1, "Z score": 0.19},
      {"smiles": "Cc1cccc(Oc2cnn(-c3ccc(F)cc3)c(=O)c2Nc2ccc(C(=O)NCCc3ccccn3)cc2)c1", "% Inhibition": 7, "Z score": -0.69},
      {"smiles": "CN(c1cccc(NC(=O)CCCN(c2ccccc2)S(C)(=O)=O)c1)S(C)(=O)=O", "% Inhibition": -44, "Z score": 5.18},
      {"smiles": "CC(=O)c1nccn1CC(=O)NC(C)C", "% Inhibition": -10, "Z score": 1.39},
      {"smiles": "CC(C)(C)c1nnc([C@H]2CCN(Cc3ccncc3)C2)o1", "% Inhibition": -14, "Z score": 1.77},
      {"smiles": "Cc1cc(C(=O)N2CCC[C@@H]2C(N)=O)cs1", "% Inhibition": -8, "Z score": 1.49},
      {"smiles": "CC(C)c1nc(CC(=O)Nc2ccccn2)cs1", "% Inhibition": -18, "Z score": 1.98},
      {"smiles": "CCOC(=O)CN(C)S(=O)(=O)c1ccc(Cl)cc1F", "% Inhibition": 3, "Z score": -0.34},
      {"smiles": "O=C(O)[C@@]1(CCOc2ccccc2)CCCN(c2ccc(Cl)cn2)C1", "% Inhibition": -14, "Z score": 2.64},
      {"smiles": "O=C(Cc1c(F)cccc1F)Nc1ncc(C2CCNCC2)s1", "% Inhibition": 4, "Z score": -0.73},
      {"smiles": "N#Cc1ccc(S(=O)(=O)N2CCCC3CC32)c(NCCO)c1", "note": "(stereo not given)", "% Inhibition": -7, "Z score": 1.14},
      {"smiles": "Cc1cc(C#N)cc(N2CC[C@@H](O)C2)n1", "% Inhibition": -3, "Z score": 0.47},
      {"smiles": "O=C(COc1ccc(Cl)cc1S(=O)(=O)Nc1cccc(C2OCCCO2)c1)N1CCOCC1", "% Inhibition": -13, "Z score": 2.03},
      {"smiles": "CC[C@@H](CO)NC(=O)Nc1cc(C)on1", "% Inhibition": -7, "Z score": 0.93},
      {"smiles": "COc1ccccc1C(=O)N1CCN(Cc2cc(=O)c3c(C)cc(C)cc3[nH]2)CC1", "% Inhibition": -9, "Z score": 1.28},
      {"smiles": "COc1ccc(CCCN(C)C(C)C(C)O)cc1", "note": "(stereo not given)", "% Inhibition": -4, "Z score": 0.49},
      {"smiles": "O=C(c1ccccn1)N1C[C@H]2CC[C@@H](C1)N(C(=O)Cc1ccccc1F)C2", "% Inhibition": -5, "Z score": 0.95},
      {"smiles": "c1cnn(-c2cc(N3CCC(n4cc(-c5ccsc5)nn4)CC3)ncn2)c1", "% Inhibition": 2, "Z score": -0.4},
      {"smiles": "CCn1c(-c2cccnc2)nc2cc(NC(=O)COC)cc(C(=O)NCc3ccccc3OC)c21", "% Inhibition": 12, "Z score": -1.58},
      {"smiles": "COCCc1nc2c(c(N3CCN(c4ccccc4OC)CC3)n1)CCOCC2", "% Inhibition": -2, "Z score": 0.17},
      {"smiles": "CC1CCCCN1C(=O)NC1CCOc2ccccc21", "note": "(stereo not given)", "% Inhibition": 1, "Z score": -0.26}
    ]}
  ]
}
